Test results as given in publication PMC7694937.
These are yes or no findings as the source states them, for the method shown. In cells and extracts the contact can be indirect. Some binding calls cover weakened binding; strength is not graded here. For some of these results: Sequences can lack the tags named with a protein.

Protein sequences, listed by entry. Tags and fused reporters are not part of them. Lines headed by an entry give the natural chain unless they say otherwise; changes in a name come on top.
UniProt Q8R4B8: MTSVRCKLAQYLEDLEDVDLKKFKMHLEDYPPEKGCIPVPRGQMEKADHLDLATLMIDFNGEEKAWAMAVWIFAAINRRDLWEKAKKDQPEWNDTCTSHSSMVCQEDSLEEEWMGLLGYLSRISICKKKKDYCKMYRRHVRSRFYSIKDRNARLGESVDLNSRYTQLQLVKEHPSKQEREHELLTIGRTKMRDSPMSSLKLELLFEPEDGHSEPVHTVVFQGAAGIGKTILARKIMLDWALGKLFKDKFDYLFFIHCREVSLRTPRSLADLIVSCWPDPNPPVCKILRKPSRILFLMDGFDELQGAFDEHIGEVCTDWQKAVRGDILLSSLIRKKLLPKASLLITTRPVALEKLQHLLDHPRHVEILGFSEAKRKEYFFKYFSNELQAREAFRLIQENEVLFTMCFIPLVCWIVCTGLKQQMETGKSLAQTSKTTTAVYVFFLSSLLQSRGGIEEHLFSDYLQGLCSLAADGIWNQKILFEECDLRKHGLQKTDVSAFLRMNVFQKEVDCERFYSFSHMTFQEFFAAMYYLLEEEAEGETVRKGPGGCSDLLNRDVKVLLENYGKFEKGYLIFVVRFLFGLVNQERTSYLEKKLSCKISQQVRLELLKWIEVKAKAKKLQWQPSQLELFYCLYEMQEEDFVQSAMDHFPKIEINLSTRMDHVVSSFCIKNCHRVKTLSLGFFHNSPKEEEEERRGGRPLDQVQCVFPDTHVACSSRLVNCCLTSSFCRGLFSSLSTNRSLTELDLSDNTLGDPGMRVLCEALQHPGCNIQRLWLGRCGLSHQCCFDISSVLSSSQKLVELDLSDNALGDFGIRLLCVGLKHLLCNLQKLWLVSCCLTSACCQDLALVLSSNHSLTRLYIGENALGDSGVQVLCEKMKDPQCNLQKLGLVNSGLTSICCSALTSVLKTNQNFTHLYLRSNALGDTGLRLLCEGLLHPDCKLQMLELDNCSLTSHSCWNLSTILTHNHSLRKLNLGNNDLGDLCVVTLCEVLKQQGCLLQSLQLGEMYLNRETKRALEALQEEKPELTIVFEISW
UniProt Q96P20: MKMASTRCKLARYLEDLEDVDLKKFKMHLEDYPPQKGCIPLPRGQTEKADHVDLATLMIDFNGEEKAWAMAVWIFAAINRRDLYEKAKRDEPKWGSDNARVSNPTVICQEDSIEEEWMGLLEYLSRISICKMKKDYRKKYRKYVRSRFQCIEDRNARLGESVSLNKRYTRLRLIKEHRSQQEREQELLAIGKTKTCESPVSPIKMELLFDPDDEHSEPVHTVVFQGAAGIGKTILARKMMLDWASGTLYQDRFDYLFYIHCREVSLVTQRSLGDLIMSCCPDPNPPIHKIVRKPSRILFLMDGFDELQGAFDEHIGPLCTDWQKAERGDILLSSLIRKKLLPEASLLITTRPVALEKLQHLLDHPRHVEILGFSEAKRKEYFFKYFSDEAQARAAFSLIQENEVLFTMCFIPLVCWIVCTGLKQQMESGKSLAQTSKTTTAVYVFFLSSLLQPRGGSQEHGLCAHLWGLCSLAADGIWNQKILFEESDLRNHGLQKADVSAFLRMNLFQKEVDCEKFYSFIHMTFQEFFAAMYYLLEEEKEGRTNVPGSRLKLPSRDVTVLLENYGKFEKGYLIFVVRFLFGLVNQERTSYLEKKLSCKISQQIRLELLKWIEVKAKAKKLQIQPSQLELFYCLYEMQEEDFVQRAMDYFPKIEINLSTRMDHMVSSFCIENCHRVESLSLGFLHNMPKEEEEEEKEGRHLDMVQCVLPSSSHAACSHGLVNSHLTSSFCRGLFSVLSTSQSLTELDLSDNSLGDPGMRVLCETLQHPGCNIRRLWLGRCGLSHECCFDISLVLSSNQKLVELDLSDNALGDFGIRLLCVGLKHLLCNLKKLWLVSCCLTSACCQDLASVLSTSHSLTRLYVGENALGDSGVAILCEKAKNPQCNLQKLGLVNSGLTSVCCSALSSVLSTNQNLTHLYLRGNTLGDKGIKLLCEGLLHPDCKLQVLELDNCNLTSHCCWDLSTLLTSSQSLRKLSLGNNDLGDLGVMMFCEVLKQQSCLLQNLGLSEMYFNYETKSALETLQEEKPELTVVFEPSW
UniProt P49023: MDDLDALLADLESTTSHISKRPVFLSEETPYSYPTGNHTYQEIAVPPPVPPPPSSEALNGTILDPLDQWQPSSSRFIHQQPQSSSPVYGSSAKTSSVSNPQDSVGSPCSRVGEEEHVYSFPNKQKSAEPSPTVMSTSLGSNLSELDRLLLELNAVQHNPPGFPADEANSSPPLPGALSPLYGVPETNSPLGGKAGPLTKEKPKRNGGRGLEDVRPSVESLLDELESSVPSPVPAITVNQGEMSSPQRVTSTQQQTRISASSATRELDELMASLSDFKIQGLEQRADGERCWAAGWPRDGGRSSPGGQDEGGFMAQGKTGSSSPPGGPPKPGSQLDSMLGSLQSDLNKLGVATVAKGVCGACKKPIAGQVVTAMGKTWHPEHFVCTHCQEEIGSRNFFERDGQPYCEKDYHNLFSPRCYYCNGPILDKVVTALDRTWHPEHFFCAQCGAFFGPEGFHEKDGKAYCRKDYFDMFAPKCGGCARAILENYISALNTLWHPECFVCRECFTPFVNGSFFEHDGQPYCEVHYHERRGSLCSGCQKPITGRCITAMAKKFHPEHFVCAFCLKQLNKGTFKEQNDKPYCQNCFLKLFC
UniProt Q8VI36: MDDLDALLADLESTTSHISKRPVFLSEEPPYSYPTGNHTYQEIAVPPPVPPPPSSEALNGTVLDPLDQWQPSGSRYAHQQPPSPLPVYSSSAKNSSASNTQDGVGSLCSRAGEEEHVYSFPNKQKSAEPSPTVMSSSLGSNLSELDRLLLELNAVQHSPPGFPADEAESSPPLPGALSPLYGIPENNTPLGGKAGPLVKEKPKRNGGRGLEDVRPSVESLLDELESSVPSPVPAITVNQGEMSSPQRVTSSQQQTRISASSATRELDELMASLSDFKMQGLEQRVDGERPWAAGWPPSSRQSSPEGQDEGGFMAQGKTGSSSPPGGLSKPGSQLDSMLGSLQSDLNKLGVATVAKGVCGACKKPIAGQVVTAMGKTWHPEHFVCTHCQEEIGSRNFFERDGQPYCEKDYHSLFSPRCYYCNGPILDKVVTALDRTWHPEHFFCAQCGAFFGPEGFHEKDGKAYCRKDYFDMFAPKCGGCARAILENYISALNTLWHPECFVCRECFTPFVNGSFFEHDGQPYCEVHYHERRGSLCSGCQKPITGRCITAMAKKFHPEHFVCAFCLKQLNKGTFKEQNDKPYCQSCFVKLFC

What was measured:
[1] = molecular target: T1, Flag-USP13(301–863) (human) (UniProt Q92995); test: co-IP; HEK293T cells co-transfected with Flag- and HA-tagged plasmids; lysis in 50 mM Tris-HCl pH 7.5, 300 mM NaCl, 1% Triton-X, 5 mM EDTA, 10% glycerol; IP with anti-Flag antibody and Protein-G Sepharose, immunoblot with anti-HA and anti-Flag; in some panels cells treated with DMSO or ATP (5 mM) for 2 h; Fig. 6d-g shown as pairs of IPs whose antibodies the legend does not name
T1 sequence: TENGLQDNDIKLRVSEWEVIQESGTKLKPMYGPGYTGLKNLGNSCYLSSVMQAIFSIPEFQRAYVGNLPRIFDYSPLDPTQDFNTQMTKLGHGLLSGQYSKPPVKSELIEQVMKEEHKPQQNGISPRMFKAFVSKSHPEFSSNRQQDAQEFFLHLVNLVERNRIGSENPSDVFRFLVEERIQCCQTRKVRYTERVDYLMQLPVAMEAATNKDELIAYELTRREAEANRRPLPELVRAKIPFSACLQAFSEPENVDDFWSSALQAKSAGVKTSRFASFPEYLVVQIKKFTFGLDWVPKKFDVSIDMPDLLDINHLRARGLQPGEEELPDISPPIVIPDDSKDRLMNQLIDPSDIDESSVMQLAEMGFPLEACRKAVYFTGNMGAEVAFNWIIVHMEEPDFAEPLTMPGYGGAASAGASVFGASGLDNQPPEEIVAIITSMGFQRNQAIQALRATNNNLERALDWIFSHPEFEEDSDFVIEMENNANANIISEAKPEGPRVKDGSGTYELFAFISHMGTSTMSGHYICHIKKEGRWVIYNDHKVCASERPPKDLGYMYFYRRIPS

Flag-USP13 (human) = molecular target: T2, Flag-USP13 (human) (UniProt Q92995); test: as above
T2 sequence: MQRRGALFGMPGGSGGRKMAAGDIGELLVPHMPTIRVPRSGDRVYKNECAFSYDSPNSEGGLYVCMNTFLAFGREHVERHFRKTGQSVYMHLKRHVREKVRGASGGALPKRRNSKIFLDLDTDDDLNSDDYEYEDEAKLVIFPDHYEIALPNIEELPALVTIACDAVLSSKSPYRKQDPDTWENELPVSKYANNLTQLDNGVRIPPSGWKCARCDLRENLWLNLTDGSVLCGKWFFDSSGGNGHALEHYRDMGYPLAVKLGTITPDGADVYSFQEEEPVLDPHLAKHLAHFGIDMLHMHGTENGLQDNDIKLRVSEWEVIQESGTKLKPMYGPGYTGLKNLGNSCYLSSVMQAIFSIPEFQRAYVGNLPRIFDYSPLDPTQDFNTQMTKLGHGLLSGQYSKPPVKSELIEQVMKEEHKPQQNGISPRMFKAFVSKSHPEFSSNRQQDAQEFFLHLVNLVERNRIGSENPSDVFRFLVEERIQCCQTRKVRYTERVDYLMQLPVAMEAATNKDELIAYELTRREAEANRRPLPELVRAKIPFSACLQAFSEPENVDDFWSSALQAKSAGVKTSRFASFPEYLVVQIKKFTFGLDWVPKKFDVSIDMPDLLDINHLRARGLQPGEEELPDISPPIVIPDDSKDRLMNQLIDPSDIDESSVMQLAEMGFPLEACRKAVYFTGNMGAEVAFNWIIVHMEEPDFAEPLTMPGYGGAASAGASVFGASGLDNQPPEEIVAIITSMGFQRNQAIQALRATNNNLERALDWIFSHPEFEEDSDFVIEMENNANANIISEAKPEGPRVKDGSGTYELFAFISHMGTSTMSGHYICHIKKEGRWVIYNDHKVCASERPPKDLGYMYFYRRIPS

[2] = molecular target: T3, Flag-USP13(1–300) (human) (UniProt Q92995); test: as above
T3 sequence: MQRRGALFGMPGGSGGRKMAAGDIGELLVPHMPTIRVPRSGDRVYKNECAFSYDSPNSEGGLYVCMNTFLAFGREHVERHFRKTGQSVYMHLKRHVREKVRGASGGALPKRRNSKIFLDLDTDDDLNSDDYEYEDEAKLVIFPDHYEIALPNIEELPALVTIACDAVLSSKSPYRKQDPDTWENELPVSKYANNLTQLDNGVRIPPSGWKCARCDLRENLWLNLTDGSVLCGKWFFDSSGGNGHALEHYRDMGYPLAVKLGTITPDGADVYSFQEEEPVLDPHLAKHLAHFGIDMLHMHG

[3] = molecular target: T4, Flag-USP13(301–624) (human) (UniProt Q92995); test: as above
T4 sequence: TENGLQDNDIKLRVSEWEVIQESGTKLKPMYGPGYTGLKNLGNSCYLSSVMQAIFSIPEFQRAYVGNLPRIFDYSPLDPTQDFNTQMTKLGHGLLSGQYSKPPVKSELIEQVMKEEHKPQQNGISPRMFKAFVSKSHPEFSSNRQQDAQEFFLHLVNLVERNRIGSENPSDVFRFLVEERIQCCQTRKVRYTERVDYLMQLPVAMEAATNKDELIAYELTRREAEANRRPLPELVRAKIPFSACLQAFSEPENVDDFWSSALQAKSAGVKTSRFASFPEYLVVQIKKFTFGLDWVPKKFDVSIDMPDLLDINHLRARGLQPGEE

[4] = molecular target: T5, Flag-USP13(625–863) (human) (UniProt Q92995); test: as above
T5 sequence: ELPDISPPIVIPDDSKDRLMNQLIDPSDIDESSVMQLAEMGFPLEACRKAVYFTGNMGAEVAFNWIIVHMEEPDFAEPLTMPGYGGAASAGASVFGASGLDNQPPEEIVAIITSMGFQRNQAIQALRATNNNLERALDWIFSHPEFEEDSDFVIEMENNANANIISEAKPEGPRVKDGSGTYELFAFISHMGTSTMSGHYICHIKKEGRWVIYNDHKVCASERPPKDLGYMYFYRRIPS

[5] = molecular target: NLRP3 (endogenous, mouse BMDMs) (mouse (endogenous in BMDMs)) (UniProt Q8R4B8); test: co-IP; endogenous proteins in LPS-primed (1 μg/ml, 6 h) BMDMs of C57BL/6 mice, stimulated with DMSO or ATP (5 mM) for 30 min; precipitating antibody not named
Flag-P2X7R = molecular target: T6, Flag-P2X7R (UniProt Q99572); test: co-IP; HEK293T cells co-transfected with Flag- and HA-tagged plasmids; lysis in 50 mM Tris-HCl pH 7.5, 300 mM NaCl, 1% Triton-X, 5 mM EDTA, 10% glycerol; IP with anti-Flag antibody and Protein-G Sepharose, immunoblot with anti-HA and anti-Flag; in some panels cells treated with DMSO or ATP (5 mM) for 2 h; Fig. 6d-g shown as pairs of IPs whose antibodies the legend does not name
T6 sequence: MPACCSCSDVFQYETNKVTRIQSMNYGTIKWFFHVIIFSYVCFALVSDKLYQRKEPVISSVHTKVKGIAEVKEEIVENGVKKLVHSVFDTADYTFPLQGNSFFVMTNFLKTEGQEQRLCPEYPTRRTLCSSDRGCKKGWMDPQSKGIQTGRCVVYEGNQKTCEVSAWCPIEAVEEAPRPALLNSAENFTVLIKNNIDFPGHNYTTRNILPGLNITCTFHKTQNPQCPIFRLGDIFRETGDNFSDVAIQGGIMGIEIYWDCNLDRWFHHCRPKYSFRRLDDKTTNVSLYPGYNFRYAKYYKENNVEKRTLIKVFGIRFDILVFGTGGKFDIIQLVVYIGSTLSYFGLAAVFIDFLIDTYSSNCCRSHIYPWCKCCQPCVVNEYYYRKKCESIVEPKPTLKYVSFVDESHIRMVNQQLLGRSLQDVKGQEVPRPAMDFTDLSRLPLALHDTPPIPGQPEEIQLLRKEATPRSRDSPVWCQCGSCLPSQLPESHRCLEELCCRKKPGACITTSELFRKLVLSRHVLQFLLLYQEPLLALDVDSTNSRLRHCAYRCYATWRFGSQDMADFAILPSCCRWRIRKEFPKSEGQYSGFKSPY

Flag-NLRP3 (human) = Flag-NLRP3 (human) (UniProt Q96P20); test: as above
GST-Paxillin (human) = GST-Paxillin (human) (UniProt P49023); test: pull-down; 10 μg purified GST fusion protein on glutathione-Sepharose beads incubated with lysate of HEK293T cells transfected with the Flag-tagged partner, 4 h at 4 °C; washed three times; immunoblot with anti-GST and anti-Flag; only the target purified
[6] = molecular target: NLRP3 (endogenous, THP-1 macrophages) (human (endogenous in THP-1)) (UniProt Q96P20); test: co-IP; endogenous proteins in TPA-differentiated THP-1 macrophages, treated with DMSO/mock or ATP (5 mM; 2 h, or 30 and 60 min); lysis in 50 mM Tris-HCl pH 7.5, 150 mM NaCl, 0.1% Nonidet P40, 5 mM EDTA, 10% glycerol; precipitating antibody not named
[7] = molecular target: T7, P2X7R (endogenous, THP-1 macrophages) (human (endogenous in THP-1)) (UniProt Q99572); test: as above
T7 sequence: T6 sequence

In the case of HA-NLRP3 (from UniProt Q96P20 1-1036), the binding [1] is reported as “binds”, the binding (Flag-USP13 (human)) is reported as “binds” and the binding [2] is reported as “no binding”. The binding [3] was “no binding” and the binding [4] was “binds”.

For “Paxillin (endogenous, mouse BMDMs) (from UniProt Q8VI36 1-591)”, the binding [5] was “binds”.

“HA-Paxillin(Y31A) (from UniProt P49023 1-591)” was tested, and the binding (Flag-P2X7R) was “binds”, the binding (Flag-NLRP3 (human)) was “binds” and the binding (Flag-USP13 (human)) was “no binding”.

“HA-Paxillin(Y118A) (from UniProt P49023 1-591)” was tested, and the binding (Flag-P2X7R) was “binds”, the binding (Flag-NLRP3 (human)) was “no binding” and the binding (Flag-USP13 (human)) was “binds”.

With Flag-NLRP3 (from UniProt Q96P20 1-1036) the binding (GST-Paxillin (human)) was “binds”.

For “HA-PYRIN (from UniProt Q96P20 1-93) (domain or fragment)”, the binding (Flag-USP13 (human)) was “no binding”.

For “Paxillin (endogenous, THP-1 macrophages) (from UniProt P49023 1-591)”, the binding [6] was “binds” and the binding [7] was “binds”.
